Assay results from patent US8507219B2, “Method of treating inflammation with statins” (MUSC Foundation for Research Development, priority 1997, dated 2013).

Experiments:
[1] = system: NO production in rat primary astrocytes; settings: for % Inhibition: of LPS (1.0 μg/ml)-induced nitrite, L-NMA 0.1 mM with LPS
[2] = system: NO production in rat primary astrocytes; assay: cells; settings: Astrocyte; for inhibition at 20000 µM: Astrocytes, NAC 20 mM 2 h prior
[3] = LPS 1.0 μg/ml, 24 h, forskolin 10 μM, 1,9-dideoxyforskolin 10 μM, isoproterenol 10 μM, IBMX mM, Rolipram 10 μM, added 15 min prior to LPS
[4] = of LPS-induced nitrite, forskolin 10 μM, isoproterenol 10 μM, IBMX mM, Rolipram 10 μM, 15 min prior to LPS
[5] = LPS 1.0 μg/ml, 24 h, serum-free, arginase 100 units/ml, L-NMA 0.1 mM added with LPS, lovastatin, mevastatin 10 μM 8 h before LPS
[6] = 24 h, arginase 100 units/ml, lovastatin, mevastatin 10 μM 8 h before LPS

With `Nc1ncnc2c1ncn2[C@@H]1O[C@@H]2COP(O)(=S)O[C@H]2[C@H]1O` (some centres unmarked) [(Sp)-cAMP] the “LPS- and/or cytokine-induced NO production” value [1] was “inhibited the LPS-stimulated NO production as nitrite”.
`COC[C@@H]([C@H](O)[C@H](O)C(=O)NCC[C@H](C)c1nc(/C=C/C[C@@H]2O[C@]3(C[C@@H](O)[C@@H]2C)O[C@H]([C@H](C[C@H](O)[C@H](C)[C@H](O)[C@H](C)/C=C(C)/C(C)=C/C=C/C(C)=C\C#N)OC)[C@H](OP(=O)(O)O)C3(C)C)co1)N(C)C` [Calyculin A] showed a Nitrite [1] of 67.8 ± 7.3 nmol/rag/24 h.
Molecule `CC1(C)C(C=C(Cl)Cl)C1C(=O)OC(C#N)c1cccc(Oc2ccccc2)c1` (centres unmarked) [Cypermethrin] has a Nitrite [1] of 27.6 ± 2.7 nmol/rag/24 h.
In the case of `CC1(C)[C@H](C(=O)O[C@H](C#N)c2cccc(Oc3ccccc3)c2)[C@@H]1C=C(Br)Br` [Deltamethrin], the Nitrite [1] is reported as 26.8 ± 2.9 nmol/rag/24 h.
Molecule `CC(C)C(C(=O)OC(C#N)c1cccc(Oc2ccccc2)c1)c1ccc(Cl)cc1` (centres unmarked) [Fenvalerate] has a Nitrite [1] of 27.1 ± 2.1 nmol/rag/24 h.
Work on `CC(C)Cn1c(=O)n(C)c(=O)c2[nH]cnc21` [IBMX, 3-isobutyl-1-methylxanthine] yielded a Nitrite [1, 3] of 6.8 ± 1.3 nmol/mg/24 h and an Inhibition [1, 4] of 78%.
In the case of `CNC(=N)NCCC[C@H](N)C(=O)O` [L-NMA, N^G-methyl-L-arginine], the Nitrite [1] is reported as 5.2 ± 0.4 nmol/rag/24 h, the Nitrite [1, 5] is reported as 5.5 ± 0.7 nmol/mg/24 h and the “% Inhibition” value [1, 6] is reported as 88%.
With `CC[C@H](C)C(=O)O[C@H]1C[C@@H](C)C=C2C=C[C@H](C)[C@H](CC[C@@H]3C[C@@H](O)CC(=O)O3)[C@H]21` [Lovastatin] the “inhibition of NO production” value ([1]; 8 to 10 h of preincubation with lovastatin) was “about 90%”, the “Production of NO” value ([1]; Astrocytes, 10 μM lovastatin or 5 mM NaPA 8 h, then LPS 1.0 μg/ml, 24 h) was 5.2 ± 0.4 nmol/24 h/mg protein and the Nitrite [1, 5] was 5.2 ± 0.5 nmol/mg/24 h. For the same molecule, the Nitrite ([1]; compound alone, no LPS, 24 h) was 2.9 ± 0.3 nmol/mg/24 h, the “inhibition in LPS-induced NO production” value ([1]; lovastatin added to the cells along with LPS) was 25% and the “% Inhibition” value [1, 6] was 90%.
Work on `CC[C@H](C)C(=O)O[C@H]1CCC=C2C=C[C@H](C)[C@H](CC[C@@H]3C[C@@H](O)CC(=O)O3)[C@H]21` [Mevastatin] yielded an inhibition at 10 µM ([2]; of LPS (1.0 μg/ml)-induced nitrite, 24 h, arginase 100 units/ml, L-NMA 0.1 mM with LPS, lovastatin, mevastatin 10 μM 8 h before LPS) of 88%, a Nitrite [1, 5] of 5.5 ± 0.5 nmol/mg/24 h and a Nitrite ([1]; compound alone, no LPS, 24 h) of 2.8 ± 0.4 nmol/mg/24 h.
`CC(=O)N[C@@H](CS)C(=O)O` [NAC, N-acetyl cysteine] showed an inhibition at 20000 µM ([2]; stimulus IFN-γ) of 80%, an inhibition at 20000 µM ([2]; stimulus IL-1β) of 74% and an inhibition at 20000 µM ([2]; stimulus LPS + IFN-γ) of 54%. The inhibition at 20000 µM ([2]; stimulus LPS + IL-1β) was 79%, the inhibition at 20000 µM ([2]; stimulus LPS + TNF-α) was 64% and the inhibition at 20000 µM ([2]; stimulus LPS) was 80%. The inhibition at 20000 µM ([2]; stimulus TNF-α + IFN-γ) was 63%, the inhibition at 20000 µM ([2]; stimulus TNF-α + IL-1β) was 86% and the inhibition at 20000 µM ([2]; stimulus TNF-α) was 55%. For the same molecule, the Nitrite ([1]; Astrocytes, stimulus IFN-γ, NAC 20 mM 2 h prior, 24 h) was 4.4 ± 1.2 nmol/mg/24 h, the Nitrite ([1]; Astrocytes, stimulus IL-1β, NAC 20 mM 2 h prior, 24 h) was 7.8 ± 1.8 nmol/mg/24 h and the Nitrite ([1]; Astrocytes, stimulus LPS + IFN-γ, NAC 20 mM 2 h prior, 24 h) was 23.5 ± 1.4 nmol/mg/24 h. For the same molecule, the Nitrite ([1]; Astrocytes, stimulus LPS + IL-1β, NAC 20 mM 2 h prior, 24 h) was 4.5 ± 2.8 nmol/mg/24 h, the Nitrite ([1]; Astrocytes, stimulus LPS + TNF-α, NAC 20 mM 2 h prior, 24 h) was 15.2 ± 1.5 nmol/mg/24 h and the Nitrite ([1]; Astrocytes, stimulus LPS, NAC 20 mM 2 h prior, 24 h) was 5.6 ± 1.6 nmol/mg/24 h. It also gave a Nitrite ([1]; Astrocytes, stimulus TNF-α + IFN-γ, NAC 20 mM 2 h prior, 24 h) of 14.1 ± 2.04 nmol/mg/24 h, a Nitrite ([1]; Astrocytes, stimulus TNF-α + IL-1β, NAC 20 mM 2 h prior, 24 h) of 5.2 ± 0.7 nmol/mg/24 h and a Nitrite ([1]; Astrocytes, stimulus TNF-α, NAC 20 mM 2 h prior, 24 h) of 10.5 ± 2.3 nmol/mg/24 h.
With `O=C([O-])Cc1ccccc1.[Na+]` [NaPA, sodium salt of phenylacetic acid] the “Production of NO” value [1] was 5.4 ± 0.6 nmol/24 h/mg protein.
`COc1ccc(C2CNC(=O)C2)cc1OC1CCCC1` (centres unmarked) [Rolipram] gave an inhibition at 10 µM [2, 4] of 80% and a Nitrite [1, 3] of 6.2 ± 1.2 nmol/mg/24 h.
`C=C[C@@]1(C)CC(=O)[C@@H]2[C@@]3(C)CCCC(C)(C)[C@@H]3[C@H](O)[C@H](OC(C)=O)[C@@]2(C)O1` [dideoxyforskolin, 1,9-dideoxyforskolin] was tested, and the Nitrite [1, 3] was 31.2 ± 4.1 nmol/mg/24 h.
For `C=C[C@@]1(C)CC(=O)[C@]2(O)[C@@]3(C)[C@@H](O)CCC(C)(C)[C@@H]3[C@H](O)[C@H](OC(C)=O)[C@@]2(C)O1` [forskolin], the inhibition at 0.1 µM ([2]; 24 h, read-out: inhibition of NO production, forskolin 0.1 μM (lowest dose with significant effect), LPS 1 μg/ml, 24 h) was 30%, the inhibition at 10 µM ([2]; 24 h, read-out: inhibition of NO production, forskolin 10 μM, LPS 1 μg/ml, 24 h) was ~90% and the inhibition at 10 µM [2, 4] was 85%. The Nitrite [1, 3] was 4.7 ± 1.2 nmol/mg/24 h.
With `CC(C)NCC(O)c1ccc(O)c(O)c1` (centres unmarked) [isoproterenol] the inhibition at 10 µM [2, 4] was 74% and the Nitrite [1, 3] was 8.1 ± 2.3 nmol/mg/24 h.

Read-outs that look alike come from different tables or passages of the source.
